Source: the supplement of paper PMC10338343
± gives the standard deviation. This is a selection; strong and weak results do not stand in their true shares.

test system: MIWI (PIWIL1) piRISC loaded with L1MC piRNA (30 nt); test: pre-steady-state target cleavage rate (min^-1); MIWI and MILI are mouse PIWI proteins and EfPiwi is from a freshwater sponge; tags in brackets are library labels; higher = faster piRNA-guided slicing of the target; settings: guide: L1MC piRNA 5'p-UAACUAAAUACUAUGCAAGCUGUAGGUCCU; auxiliary factor: 500 nM mouse GTSF1
Procedure, shortened: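 In HEPES–potassium acetate buffer at 33 °C, […] transcribed, DNA-blocked target RNA library was mixed with 1 nM active affinity-purified piRISC carrying one synthetic guide, with or without 500 nM GTSF1 partner protein, for 0–8 or 0–960 min. Uncleaved targets were sequenced and normalised to depth and to weakly complementary targets; three trials were pooled and k3 was capped at 0.0001 min^-1. The pre-steady-state cleavage rate followed from a burst-and-steady-state fit.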
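Also: 1 nM active piRISC with 0.1 nM target library at 33 °C single turnover.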

Row | Sequence | pre-steady-state target cleavage rate
1 | UCCUGCUACACCUUGCAUAGUAUUUACAAA | 0.245 ± 0.056
2 | UCCUGGAUGUGCAUGCAUACUAUUUAGUUA | 0.0114 ± 0.0043
3 | UCCUGGUACAGCUUGCAUAGUAUUUAGCUA | 0.00692 ± 0.0039
4 | UCGACCUACACGUUGCAUAGUAUUUUCAAA | 0.224 ± 0.036
5 | UCCACCUACAGCUUGCUUAGUAUUUACAAA | 0.233 ± 0.036
6 | UCCUGGAACAGCUUGCAUUCUAUUUAGUAA | 0.0298 ± 0.01
7 | UCCUGGUACAGCUUGCAAUGUAUUUUCAAA | 0.00729 ± 0.0039
8 | UCCUCCUACAGCUUCGAUAGUAUUUACAAA | 0.0331 ± 0.011
9 | UCCUGCUUCAGCUUCCAUAGUAUUUAGUUA | 0.0509 ± 0.014
10 | AGGACCUACAGCUUGCAUAGUUAUUAGAAA | 0.359 ± 0.086
11 | UCCUGGAUGAGGUUGCAUAGUUUUUAGUUA | 0.012 ± 0.0054
12 | UGGACCUACAGCUUGCUAUAGUAUUUAGUUA | 0.0205 ± 0.0066
13 | UCCUCCUACAGCUUGCAAAGUAUUUUCAAA | 0.257 ± 0.039
14 | AGGACCUACAGCUUGGUUAGUAUUUAGAAA | 0.301 ± 0.052
15 | UCCUGGAUGUCGAAGCAUAGUGUUUAGUUA | 0.00347 ± 0.0034
16 | UCCUGGAUGUCCUUGCAUAGUAUUUAGCUA | 0.0193 ± 0.0067
17 | UCCUGCUACAGCUUGCAUAGUAUUAUCAAA [g7:g25:cont:t1A] | 0.292 ± 0.047
18 | UCCACCUACAGCUUCGAUAGUAUUUAGUAA | 0.236 ± 0.031
19 | UCCUGGAUCAGCAAGCAUAGUAUUUAGAAA | 0.0101 ± 0.0047
20 | UCCUGCUACAGCUUGCAUACAAUUUAGUAA | 0.0165 ± 0.008

Row | Sequence | pre-steady-state target cleavage rate
21 | UCCUGGAUCAGCUUGCAAUCUAUUUAGUAA | 0.00469 ± 0.0034
22 | UGGACCUAGUCCUUGCAUAGUAUUUUCAAA | 0.00906 ± 0.0037
23 | AGGACCUACAGCUUGCAAUCUAUUUAGAAA | 0.0144 ± 0.006
24 | UCCUGGAUGUGCAUGCAUAGAAUUUAGUUA | 0.00471 ± 0.0043
25 | UCCUGGAACAGCUUGCAUAGAUAUUUAGUUA | 0.00986 ± 0.0058
26 | UCCUGGAUGUCGUCGCAUAGUAUUUAGUUA | 0.0192 ± 0.0034
27 | UCCUGCUACAGCUUGCAUUCAAUUUAGUUA | 0.00972 ± 0.0043
28 | UGGACCUACAGGAAGCAUAGUAUUUAGAAA | 0.198 ± 0.035
29 | UCCUGGAUGUCGUUGCAUAGUAUUUAGUAA | 0.00556 ± 0.0034
30 | UGGACCUACAGCUUCCUUAGUAUUUAGUUA | 0.412 ± 0.033
31 | UCCACCUACUGCUUGCAUAGUAUUUUCAAA | 0.137 ± 0.02
32 | UCCUCCUACAGCUUCCAUAGUAUUUAGAAA | 0.0194 ± 0.0093
33 | UCCUGGUACAGCUUGGAUAGUAUUUUCAAA | 0.00705 ± 0.0056
34 | UCGACCUACAGCUUGCAUAGAUAUUUAGUUA | 0.0768 ± 0.028
35 | UCCUCCUACAGCUUCCAUAGAAUUUAGUUA | 0.023 ± 0.011
36 | UGGUGCUACAGCUUGCAUAGUAUUUACAAA | 0.144 ± 0.028
37 | AGCACCUACAGCUUGCAUAGUAUUUACAAA | 0.569 ± 0.087
38 | UCCUCCUACAGCUUCCAUAGUAUUAAGUUA | 0.0607 ± 0.022
39 | UCCUCCUACAGCUUGCAUAGAUAUUUAGUUA | 0.0587 ± 0.024
